# Measurements taken from PubChem BioAssay (NCATS).
# Inconclusive means that the source gave no clear call. Such entries were picked first, then a sample of the others. For some assays here: Potencies beside an inconclusive call are fits to weak or partial responses and may not hold up. The source made the active and inactive calls. Unless noted, calls follow the shape of the dose curve; as a rule, active = well fitted curve in the direction sought with a large enough effect; inconclusive = small, poorly fitted or top-dose-only effect, or another doubt; inactive = no such curve, though single readings can be large; an effect the other way counts as inactive or inconclusive.
# What was measured:
# [1] = qHTS Assay for Identifying Gametocytocidal Compounds (AID 743244);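 also: % is scaled to controls: 0 for no effect and ±100 for the full control effect; actives lower the fluorescent signal which means gametocytes are killed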; conditions: P. falciparum 3D7 stage III-V gametocytes, alamarBlue, 72 h; max response: hits give low values
# Procedure, shortened: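 Viability read-out was resazurin reduction (alamarBlue, 24 h) measured at Ex 525/Em 598 nm. Beforehand, late-stage (III-V) 3D7 P. falciparum gametocytes at 20,000 cells/well were incubated with compound 72 h at 37C under 5% CO2.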
# [2] = molecular target: Glutathione peroxidase 1 (Homo sapiens) (UniProt P07203); test: Primary qHTS Assay for Inhibitors of Recombinant Selenoprotein Glutathione Peroxidase 1 (GPX1) (AID 1845191); also: potency is read from the fitted curve at half-maximal effect; nearly all actives have a fitted effect of over 65% in size
# Sequence of UniProt P07203 (P07203 whole entry, looked up): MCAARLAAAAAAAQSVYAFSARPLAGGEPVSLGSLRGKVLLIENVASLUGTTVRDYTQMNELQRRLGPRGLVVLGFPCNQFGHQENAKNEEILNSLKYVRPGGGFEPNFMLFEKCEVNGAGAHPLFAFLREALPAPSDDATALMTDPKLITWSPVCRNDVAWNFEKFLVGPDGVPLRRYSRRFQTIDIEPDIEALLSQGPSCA
# Procedure, shortened: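 GPX1 10 nM, GR 100 nM, GSH 1 mM, NADPH 0.5 mM, CHP 0.5 mM (final). 30-min cpd preincubation, RT. Ex340/Em450 read t=0, t=15 min.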
# [3] = molecular target: Phospholipid hydroperoxide glutathione peroxidase GPX4 (Homo sapiens) (UniProt P36969); test: Primary qHTS Assay for Inhibitors of Recombinant Selenoprotein Glutathione Peroxidase 4 (GPX4) (AID 1845192); conditions: activity change, negative = inhibition: at 50 µM (top of the series) unless noted; also: potency is read from the fitted curve at half-maximal effect; nearly all actives have a fitted effect of over 65% in size
# Sequence of UniProt P36969 (P36969 whole entry, looked up): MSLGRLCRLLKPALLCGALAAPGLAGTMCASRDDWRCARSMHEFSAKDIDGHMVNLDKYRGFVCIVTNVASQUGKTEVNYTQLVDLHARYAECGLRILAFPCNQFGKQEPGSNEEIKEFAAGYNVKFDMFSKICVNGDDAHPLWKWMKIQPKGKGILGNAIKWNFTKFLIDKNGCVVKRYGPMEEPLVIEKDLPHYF
# Procedure, shortened: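 qHTS, GR-coupled: GPX4 200 nM + cpd 30 min RT → GSH 1 mM, NADPH 0.5 mM, GR 100 nM → CHP 0.5 mM start; fluor 340/450 at t0 and t15 min; no-enzyme wells as control.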
# CAOV3 = test: Primary qHTS to identify gynecologic anti-cancer compounds using libraries of approved drugs and bioactive compounds (AID 1345084); conditions: Gynecologic cancer cell panel viability, ATPlite luminescence, 48 h; series mostly up to 57.5 µM; also: nearly all actives have a fitted effect of over 55% in size; also: potency is read from the fitted curve at half-maximal effect
# Procedure, shortened: (§1)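 Five-point cytotoxicity, 48 h drug exposure at 37 C, 5% CO2, on cells seeded 16 h beforehand. ATP content read by ATPlite luminescence.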
# Es-2 = test: as above; conditions: Gynecologic cancer cell panel viability, ATPlite luminescence, 48 h; series mostly up to 57.5 µM
# Procedure, shortened: as §1
# Hek293T = test: as above; conditions: Gynecologic cancer cell panel viability, ATPlite luminescence, 48 h, control line for the selectivity index; series mostly up to 57.5 µM
# Procedure, shortened: as §1
# SKOV3 = test: as above; conditions: Gynecologic cancer cell panel viability, ATPlite luminescence, 48 h; series mostly up to 57.5 µM
# Procedure, shortened: as §1
# Tov112D = test: as above; conditions: Gynecologic cancer cell panel viability, ATPlite luminescence, 48 h; series mostly up to 57.5 µM
# Procedure, shortened: as §1
# [4] = Drug repurposing screens with cells derived from glioblastoma tumor samples (AID 1345199); conditions: GBM patient neurospheres viability, ATP luminescence, 48 h; Potency: tumour line A unless noted; activity, negative = cell killing: at 46 µM (top of the series), tumour line A unless noted; also: nearly all actives have a fitted effect of over 40% in size; also: potency is read from the fitted curve at half-maximal effect; as to activity, negative = cell killing: % is scaled to controls: 0 for no effect and ±100 for the full control effect
# Procedure, shortened: (§2)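 Primary testing used CD133+ neurospheres from four GBM patients, seven concentrations, 48 h exposure and ATP-based viability; confirmation added three slower-growing patient lines.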
# astro = test: as above; conditions: viability, ATP luminescence, 48 h; activity, negative = cell killing: at 45.9 µM (top of the series) unless noted
# Procedure, shortened: as §2
# [5] = tested on: Zika virus NS2B-NS3 protease (linked construct); test: Primary screen NINDS Rhodamine qHTS for Zika virus inhibitors (AID 1347160)
# Procedure, shortened: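 Aprotinin served as in-plate control. Conditions: 25 nM linked NS2B-NS3, pH 8.0 Tris buffer, titrated compounds, 15 min preincubation and 15 min reaction with 1.5 microM Rhod110 substrate at room temperature.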
# [6] = Primary qHTS for inhibitors of nuclear receptor binding SET domain protein 2 (NSD2) in an isogenic RCH-ACV NSD2 p.E1099K mutant (9B) (AID 1645876); conditions: activity change, negative = viability loss: at 44.9 µM (top of the series) unless noted; also: potency is read from the fitted curve at half-maximal effect; nearly all actives have a fitted effect of over 70% in size
# [7] = Primary fluorescence-based thiol-reactive (MSTI) qHTS assay for identification of artifact compounds. (AID 1845221);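 also: potency is read from the fitted curve at half-maximal effect; thiol-reactive compounds lower the probe fluorescence signal; nearly all actives have a fitted effect of over 65% in size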
# Procedure, shortened: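 Thiol-reactive compounds detected by quenching of 4 uM MSTI fluorescence (525/598 nm) after 1 h room-temperature dark incubation in PBS pH 7.4, 2% DMSO. qHTS titration; percent inhibition Hill-fitted against Acetyl-MSTI/MSTI controls.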
# OV90 = test: Primary qHTS to identify gynecologic anti-cancer compounds using libraries of approved drugs and bioactive compounds (AID 1345084); conditions: Gynecologic cancer cell panel viability, ATPlite luminescence, 48 h; series mostly up to 57.5 µM; also: nearly all actives have a fitted effect of over 55% in size; also: potency is read from the fitted curve at half-maximal effect
# Procedure, shortened: as §1
# [8] = A High-Content qHTS Against Drug Library for the Identification of Small Molecules that Inhibit DYT1 Early Onset Primary Dystonia-Associated Cell Pathology (AID 1645839; calls by dose curve)
# Procedure, shortened: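 Induced EGFP-delE TorsinA cells are imaged after 48 h of compound treatment. Punctate fusion-protein distribution gives the %pathology value, while nuclei counts flag toxicity. Wild-type EGFP-hTOR1A cells define the normal pattern.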
# HeLa = test: Primary qHTS to identify gynecologic anti-cancer compounds using libraries of approved drugs and bioactive compounds (AID 1345084); conditions: Gynecologic cancer cell panel viability, ATPlite luminescence, 48 h; series mostly up to 57.5 µM; also: nearly all actives have a fitted effect of over 55% in size; also: potency is read from the fitted curve at half-maximal effect
# Procedure, shortened: as §1
# [9] = tested on: Zika virus NS2B-NS3 protease (unlinked complex); test: Primary screen GU Rhodamine qHTS for Zika virus inhibitors: Unlinked NS2B-NS3 protease assay (AID 1347159); conditions: Recombinant ZIKV NS2B-NS3 protease, Rhodamine110 substrate fluorescence; activity change, negative = inhibition: at 107 µM (top of the series); also: potency is read from the fitted curve at half-maximal effect; nearly all actives have a fitted effect of over 60% in size
# Procedure, shortened: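 Buffer 10 mM Tris-HCl pH 8.0, 0.01% Tween 20. Unlinked protease 25 nM; compound preincubation 15 min, RT, protected from light. Substrate Rhod110, 1.5 microM; ~15% conversion in 15 min.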
# JEG-3 = test: Primary qHTS to identify gynecologic anti-cancer compounds using libraries of approved drugs and bioactive compounds (AID 1345084); conditions: Gynecologic cancer cell panel viability, ATPlite luminescence, 48 h; series mostly up to 57.5 µM; also: nearly all actives have a fitted effect of over 55% in size; also: potency is read from the fitted curve at half-maximal effect
# Procedure, shortened: as §1
# PA-1 = test: as above; conditions: Gynecologic cancer cell panel viability, ATPlite luminescence, 48 h; series mostly up to 57.5 µM
# Procedure, shortened: as §1
# Tov-21-G = test: as above; conditions: Gynecologic cancer cell panel viability, ATPlite luminescence, 48 h; series mostly up to 57.5 µM
# Procedure, shortened: as §1
# [10] = Primary qHTS for inhibitors of nuclear receptor binding SET domain protein 2 (NSD2) in an RCH-ACV wild type WT cells (2C) (AID 1645877); conditions: activity change, negative = cell killing: at 44.9 µM (top of the series) unless noted; also: % is scaled to controls: 0 for no effect and ±100 for the full control effect; nearly all actives have a fitted effect of over 70% in size
# [11] = Primary redox qHTS assay for identification of artifact compounds. (AID 1845223); also: potency is read from the fitted curve at half-maximal effect
# Procedure, shortened: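 Redox-cycling detection via DTT (250 uM final) oxidation coupled to Amplex Red (25 uM)/HRP (250 mU/mL) in HBSS. 15 min preincubation plus 30 min after DTT, room temperature. Ex/Em 525/598 nm; 4-parameter Hill fit against DMSO and 10 uM DA3003.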
# Tags tell the direction and shape of the fitted curve.
smiles,measurement,setting,value
COc1ccc(C[C@H](C)NC[C@@H](O)c2ccc(O)c(NC=O)c2)cc1,max response,[1],inactive: -5.27%
same,Potency,[2],"inconclusive: 3.21 µM [inhibitor, full curve]"
same,Potency,[3],"inconclusive: 7.94 µM [inhibitor, partial curve, poor fit]"
same,Potency,CAOV3,inactive
same,Potency,Es-2,"inconclusive: 39.8 µM [cytotoxic, partial curve, poor fit]"
same,Potency,Hek293T,"inconclusive: 39.8 µM [cytotoxic, single point]"
same,Potency,SKOV3,"inconclusive: 31.6 µM [cytotoxic, single point]"
same,Potency,Tov112D,"inconclusive: 39.8 µM [cytotoxic, single point]"
same,Potency,[4],active: 17.8 µM
same,Potency,astro,inactive
COc1cc2c(c(OC)c1CC=C(C)C)C[C@H](c1ccc(O)cc1O)CO2,Potency,[5],"inconclusive: 28.2 µM [inhibitor, single point]"
same,Potency,[6],"inconclusive: 12.7 µM [inhibitor, partial curve, poor fit]"
same,Potency,[7],active: 13.1 µM
same,Potency,CAOV3,"inconclusive: 0.794 µM [rising, partial curve, poor fit]"
same,Potency,Hek293T,inactive
same,Potency,OV90,inactive
same,Potency,SKOV3,inactive
O=c1[nH]c2ccccc2c(=O)n1CCCl,Potency,[8],inactive
same,Potency,CAOV3,inactive
same,Potency,HeLa,"inconclusive: 11.2 µM [cytotoxic, partial curve]"
O=C(/C=C/n1cnc(-c2cc(C(F)(F)F)cc(C(F)(F)F)c2)n1)NNc1cnccn1,Potency,[9],"inconclusive: 39.8 µM [inhibitor, partial curve, poor fit]"
same,Potency,CAOV3,"inconclusive: 4.47 µM [cytotoxic, full curve]"
same,Potency,Es-2,"inconclusive: 10 µM [cytotoxic, partial curve]"
same,Potency,Hek293T,"inconclusive: 2.82 µM [cytotoxic, full curve, poor fit]"
same,Potency,JEG-3,"inconclusive: 7.94 µM [cytotoxic, full curve]"
same,Potency,OV90,"inconclusive: 3.16 µM [cytotoxic, single point]"
same,Potency,PA-1,active: 10 µM
same,Potency,SKOV3,"inconclusive: 39.8 µM [rising, single point]"
same,Potency,Tov-21-G,"inconclusive: 11.2 µM [cytotoxic, partial curve]"
same,Potency,Tov112D,"inconclusive: 11.2 µM [cytotoxic, partial curve]"
COC(=O)C[C@H]1[C@]2(C)C3=C(C)[C@H](c4ccoc4)C[C@H]3O[C@@H]2[C@H](OC(C)=O)C2[C@](C)(C(=O)OC)C=CC(=O)[C@@]21C (stereo not given in full),Potency,[9],"inconclusive: 15.8 µM [inhibitor, partial curve]"
same,Potency,[10],inactive
same,Potency,[11],"inconclusive: 10.3 µM [activator, partial curve, poor fit]"
same,Potency,CAOV3,"inconclusive: 1.78 µM [rising, partial curve, poor fit]"
same,Potency,HeLa,inactive
